Data from PMC4336329 (PLoS ONE, 2015).
Out of some 310,000 compounds screened, about 14,000 (4.5%) showed an effect of 50% or more. The effect is printed as a negative number. Some of the results follow.

biological target: human ether-à-go-go-related gene (hERG) potassium channel (human, UniProt Q12809); test: primary screen, population patch clamp on CHO cells stably expressing hERG
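Also: peak tail current of the secondary pulse compared with the same well before compound.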

human ether-à-go-go-related gene (hERG) potassium channel, sequence (Q12809 whole entry, looked up): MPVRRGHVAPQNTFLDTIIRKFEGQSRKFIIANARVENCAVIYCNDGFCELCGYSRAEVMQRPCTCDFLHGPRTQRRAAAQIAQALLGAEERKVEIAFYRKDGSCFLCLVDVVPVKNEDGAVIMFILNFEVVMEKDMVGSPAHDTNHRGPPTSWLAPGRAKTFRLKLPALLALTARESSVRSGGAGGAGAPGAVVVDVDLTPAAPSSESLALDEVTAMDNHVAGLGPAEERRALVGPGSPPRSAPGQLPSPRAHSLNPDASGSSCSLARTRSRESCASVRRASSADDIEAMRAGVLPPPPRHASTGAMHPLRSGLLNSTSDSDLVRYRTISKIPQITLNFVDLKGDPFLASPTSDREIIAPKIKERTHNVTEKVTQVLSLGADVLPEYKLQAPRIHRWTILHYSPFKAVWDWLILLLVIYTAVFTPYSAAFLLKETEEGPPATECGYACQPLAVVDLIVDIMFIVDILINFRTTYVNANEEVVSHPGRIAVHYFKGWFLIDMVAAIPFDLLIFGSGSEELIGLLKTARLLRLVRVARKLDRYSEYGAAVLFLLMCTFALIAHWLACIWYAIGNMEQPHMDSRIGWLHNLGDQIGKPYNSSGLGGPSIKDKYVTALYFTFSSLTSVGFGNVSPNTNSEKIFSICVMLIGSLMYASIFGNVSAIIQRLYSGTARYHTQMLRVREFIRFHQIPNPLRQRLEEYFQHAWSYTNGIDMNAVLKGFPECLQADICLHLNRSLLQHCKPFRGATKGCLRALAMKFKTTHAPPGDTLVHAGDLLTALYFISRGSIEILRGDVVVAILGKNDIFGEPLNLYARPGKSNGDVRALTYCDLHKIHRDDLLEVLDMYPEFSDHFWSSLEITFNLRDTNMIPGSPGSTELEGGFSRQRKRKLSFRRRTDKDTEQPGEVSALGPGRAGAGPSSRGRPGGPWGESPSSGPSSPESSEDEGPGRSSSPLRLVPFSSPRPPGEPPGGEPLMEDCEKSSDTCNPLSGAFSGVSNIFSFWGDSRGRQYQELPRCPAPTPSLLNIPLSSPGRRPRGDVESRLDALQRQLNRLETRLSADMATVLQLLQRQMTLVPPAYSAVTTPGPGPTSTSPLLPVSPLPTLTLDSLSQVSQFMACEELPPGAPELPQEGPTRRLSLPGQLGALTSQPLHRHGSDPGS

Compound	hERG current change (%, negative = inhibition) at 10uM [%]
CCN1C(=O)C2(/C(=C(\O)c3ccc4c(c3)OCCO4)C(=O)C(=O)N2CCCOC)c2ccccc21 (stereo not shown)	22.8
CCOc1ccc(CCNC(=O)COC(=O)c2cc(=O)[nH]c3ccccc23)cc1OCC	16.1
CC1CCCC(NC(=O)C2CCN(S(=O)(=O)N3CCC4(CC3)OCCO4)CC2)C1C (stereo not shown)	-1.96
Nc1nc(-c2ccc3c(c2)CCC(=O)N3)cs1	16.5
COc1cc(CNC(C)C)ccc1OCC(=O)Nc1cccc2ccccc12	-27.2
Cc1ccc(-c2nnc(Nc3ccc4c(c3)OCO4)c3ccccc23)cc1S(N)(=O)=O	-9.69
Cc1ccc(NC(=O)C2=C(O)c3ccccc3N(C)S2(=O)=O)cc1	13.4
O=C(NCc1ccccc1)c1onc(CSc2ccc(F)c(F)c2)c1C(=O)NCc1ccccc1	3.32
CCOC(=O)C1CCN(Cc2ccc(OCc3ccccc3)cc2)CC1.O=C(O)C(=O)O	-62
COc1ccc(Nc2nnc(SCC(=O)c3cc4ccccc4o3)s2)cc1	10.3
CCCc1cc(=O)oc2cc(OCC(=O)NCCCn3ccnc3)ccc12	-47.1
CCS(=O)(=O)NCc1nnc2n1-c1ccc(Cl)cc1C(c1ccccc1)=NC2	12.6
O=C(O)C1Nc2c(O)cccc2C2C=CCC12 (stereo not shown)	10.7
Cc1nc(CNS(=O)(=O)c2ccc3c(c2)CCCC3)cs1	-2.85
Cc1ccc2oc(=O)n(CC(=O)O)c2c1	23.8
CCN(CC)c1ccc(C(=O)N/N=C/c2ccc(N3CCOCC3)cc2)cc1	14.9
CCc1ccc(C(=O)OCC(=O)N(CC)c2c(N)n(Cc3ccccc3)c(=O)[nH]c2=O)cc1	18.7
Cc1ccc(CNC(=O)CCc2c(C)[nH]c(=O)c(C#N)c2C)cc1	12.6
COC(=O)c1ccc(CN2C(=O)NC3(CCC(C)CC3)C2=O)o1 (stereo not shown)	-14.2
CC1(C)CC(N2CCCCC2)=CC(=[N+]2CCCCC2)C1.[I-]	8.09
CNC(=O)NC(=O)C(C)OC(=O)c1ccc(Cl)c(S(=O)(=O)Nc2ccc(F)cc2)c1 (stereo not shown)	8.39
[O-][n+]1ccccc1SC/C=C/c1ccccc1	0.271

Compound	hERG current change (%, negative = inhibition) at 10uM [%]
O=S(=O)(Nc1ccc(Cc2ccncc2)cc1)c1ccc(Br)s1	-13.1
CCOc1cccc(CNCc2ccc(C(=O)O)cc2)c1.Cl	23.7
COc1ccc(-n2c(SCC(=O)N(C)c3ccccc3)nc3c([nH]c4ccccc43)c2=O)cc1OC	7.61
COc1cc(Cl)c(C)cc1NC(=O)CN1CCCCCC1	-0.067
Nc1nc(SC23CC4CC(CC(C4)C2)C3)ns1	10.3
Cc1cccc(C(=O)Nc2ccc(O)cc2)c1	12.6
CCN1CCN(C(=O)c2cc3c(s2)-c2c(C)cccc2OC3)CC1	-17.8
CCOC(=O)C(CC(C)C)CP(=O)(O)CNC(=O)OCc1ccccc1 (stereo not shown)	12.9
Cl.ClCCN1CCN(c2ccnc3cc(Cl)ccc23)CC1	-20.8
CCN(C(=O)COC(=O)c1cc([N+](=O)[O-])ccc1N1CCCCC1)C1CCS(=O)(=O)C1 (stereo not shown)	0.233
COCCOC(=O)c1c(C)oc2ccc(O)c(CN3CCC(C)CC3)c12	-29.8
Cc1ccc(Nc2c(F)c(F)c(F)c(F)c2C(=O)O)c(C)c1	13.1
COc1ccc(CCNC(=O)CSc2nnc3ccc(-c4ccncc4)nn23)cc1	-20.7
CN(CC(=O)N1CCc2ccccc21)S(=O)(=O)c1cccs1	-22
O=C(NCc1ccc2c(c1)OCO2)C1CCN(S(=O)(=O)c2ccc(F)cc2)CC1	5.43
Nc1ccccc1SC1CC(=O)N(Cc2ccccc2)C1=O (stereo not shown)	0.456
Cc1ccccc1N/C(SCc1cccc(Br)c1)=C(/C#N)C(N)=O	20.5
CCOC(=O)/C=c1\s/c(=C\c2ccccc2C)c(=O)n1CC(=O)NCc1ccc2c(c1)OCO2	-1.42
COc1cc(N2CCCC2)c(OC)cc1/C=C(/C#N)c1ccc(F)cc1	24.5
CN(C)CCNC(=O)c1cc(Br)ccc1Cl	3.14
Cc1csc(SCCn2c(N3CCN(c4ccccc4)CC3)nc3c2c(=O)[nH]c(=O)n3C)n1	-3.59
